The record followed here is PMC4336329 (PLoS ONE, 2015).

Hit rate of the full screen: of about 310,000 compounds, about 14,000 (4.5%) showed an effect of 50% or more. The effect is printed as a negative number. Some of the results follow.
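Note: peak tail current of the secondary pulse compared with the same well before compound.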

For this experiment, the target named is human ether-à-go-go-related gene (hERG) potassium channel (human, UniProt Q12809). The experiment can be described thus: primary screen, population patch clamp on CHO cells stably expressing hERG.
Chain of human ether-à-go-go-related gene (hERG) potassium channel (Q12809 whole entry, looked up): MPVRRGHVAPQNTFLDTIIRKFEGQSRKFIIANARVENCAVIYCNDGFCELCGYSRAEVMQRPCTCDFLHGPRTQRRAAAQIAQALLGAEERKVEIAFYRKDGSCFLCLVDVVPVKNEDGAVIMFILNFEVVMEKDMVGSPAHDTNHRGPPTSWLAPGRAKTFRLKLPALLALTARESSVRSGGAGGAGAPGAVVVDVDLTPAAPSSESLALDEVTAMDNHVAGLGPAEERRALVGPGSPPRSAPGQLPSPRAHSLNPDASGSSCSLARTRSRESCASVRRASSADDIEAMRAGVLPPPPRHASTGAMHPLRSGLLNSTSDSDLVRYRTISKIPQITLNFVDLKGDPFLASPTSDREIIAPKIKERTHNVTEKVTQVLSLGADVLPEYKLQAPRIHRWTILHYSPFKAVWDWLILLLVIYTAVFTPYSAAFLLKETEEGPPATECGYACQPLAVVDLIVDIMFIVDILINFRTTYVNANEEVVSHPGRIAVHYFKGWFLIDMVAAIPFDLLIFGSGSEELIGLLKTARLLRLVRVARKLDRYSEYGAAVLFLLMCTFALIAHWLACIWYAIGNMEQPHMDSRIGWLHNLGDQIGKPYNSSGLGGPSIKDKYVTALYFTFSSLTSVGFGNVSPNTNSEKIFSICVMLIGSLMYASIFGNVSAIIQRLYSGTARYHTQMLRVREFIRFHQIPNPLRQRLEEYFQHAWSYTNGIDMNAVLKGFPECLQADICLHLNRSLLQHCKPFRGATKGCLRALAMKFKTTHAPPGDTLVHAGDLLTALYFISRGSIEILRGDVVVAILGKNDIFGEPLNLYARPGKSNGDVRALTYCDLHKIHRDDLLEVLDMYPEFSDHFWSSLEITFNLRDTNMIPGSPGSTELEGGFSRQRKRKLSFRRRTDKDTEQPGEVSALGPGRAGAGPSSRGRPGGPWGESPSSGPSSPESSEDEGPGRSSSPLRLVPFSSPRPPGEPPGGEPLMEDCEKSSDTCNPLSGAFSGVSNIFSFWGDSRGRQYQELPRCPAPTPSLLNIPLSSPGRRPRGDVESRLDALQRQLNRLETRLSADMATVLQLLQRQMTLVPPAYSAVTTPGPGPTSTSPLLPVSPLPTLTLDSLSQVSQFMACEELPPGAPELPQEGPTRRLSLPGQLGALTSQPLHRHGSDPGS
Take `CC(C)C1Nc2ccc(C(=O)O)cc2C2C=CCC21` (stereo not shown): the “hERG current change (%, negative = inhibition) at 10uM” value is on record as 24.6%.

On to `O=C(CCN1C(=O)c2ccccc2C1=O)Nc1ccc(-c2cn3ccsc3n2)cc1`, for which the “hERG current change (%, negative = inhibition) at 10uM” value is 16.4%.

Consider `Nc1c(C(=O)NCc2ccc3c(c2)OCO3)nnn1Cc1ccc(Br)cc1`, for which the “hERG current change (%, negative = inhibition) at 10uM” value is on record as -5.41%.

As to `O=C1NN=C(c2ccccc2)CC1c1c[nH]c2ccccc12` (stereo not shown), the “hERG current change (%, negative = inhibition) at 10uM” value is on record as -7.51%.

Take `Cc1nnc(N2CCOCC2)c2nn(-c3ccccc3)c(C)c12`: the “hERG current change (%, negative = inhibition) at 10uM” value is recorded as -32.8%.

Turning to `Cn1c(N)c(C(=O)COC(=O)CCC2CCCC2)c(=O)n(C)c1=O`, the “hERG current change (%, negative = inhibition) at 10uM” value was -43.3%.

As for `Cc1ccc(-n2ncc3c(=O)[nH]c(SC(C)C)nc32)cc1`, the “hERG current change (%, negative = inhibition) at 10uM” value is recorded as -11.2%.

For `CCOC(=O)c1nc(NCc2ccccc2C)c2ccccc2n1`, the “hERG current change (%, negative = inhibition) at 10uM” value is listed as -0.424%.

On to `Nc1cc(N2CCCCC2)c(Cl)cc1[N+](=O)[O-]`, for which the “hERG current change (%, negative = inhibition) at 10uM” value was -10.8%.

Turning to `CCOc1ccccc1CNC(=O)CN1C(=O)CSc2ccc(S(=O)(=O)N3CCOCC3)cc21`, the “hERG current change (%, negative = inhibition) at 10uM” value is on record as -11.4%.

On to `COc1ccc(-n2c(Cc3cccn3C)nnc2SCC(=O)Nc2ccccc2C)cc1`, for which the “hERG current change (%, negative = inhibition) at 10uM” value is -36.5%.

Regarding `CCC(=O)NNc1nc2c(C)cc(C)cc2s1`, the “hERG current change (%, negative = inhibition) at 10uM” value turned out to be 16.2%.

As for `O=C(O)c1cccc2c(/C=N/Nc3ccccn3)c[nH]c12`, the “hERG current change (%, negative = inhibition) at 10uM” value was -1.13%.

Consider `COc1cccc(CNC(=O)c2ccc(NC(=O)CC3SC(N4CCCCC4)=NC3=O)cc2)c1` (stereo not shown), for which the “hERG current change (%, negative = inhibition) at 10uM” value was -4.39%.

With `CC1CN(C(=O)CSc2nnc(-c3ccncc3)n2-c2ccccc2)CC(C)O1` (stereo not shown), the “hERG current change (%, negative = inhibition) at 10uM” value was 2.88%.

With `CCN(CC)c1ccc(N)cc1S(=O)(=O)Nc1ccc(OC)cc1`, the “hERG current change (%, negative = inhibition) at 10uM” value is reported as -4.91%.

As to `CCOC(=O)C(=O)Nc1nccs1`, the “hERG current change (%, negative = inhibition) at 10uM” value amounted to 0.744%.

Turning to `Cc1onc(-c2ccc(Cl)cc2Cl)c1-c1csc(N/N=C/c2ccccc2)n1`, the “hERG current change (%, negative = inhibition) at 10uM” value stood at 12.4%.

As for `O=C(COc1coc(CN2CCN(c3ccccc3)CC2)cc1=O)Nc1cccc(F)c1`, the “hERG current change (%, negative = inhibition) at 10uM” value turned out to be 13.7%.

Consider `CCN(CC)Cc1c(C(=O)N/N=C/c2ccncc2)nnn1-c1nonc1N`, for which the “hERG current change (%, negative = inhibition) at 10uM” value is reported as -55.9%.

For the compound `Cn1nccc1C(=O)Oc1cccc(/C=N/NC(=O)c2ccccc2O)c1`, the “hERG current change (%, negative = inhibition) at 10uM” value was found to be 3.3%.

Turning to `CC(=O)N1c2ccc(S(=O)(=O)N3CCCCC3)cc2CC1C(=O)Nc1ccccc1C(F)(F)F` (stereo not shown), the “hERG current change (%, negative = inhibition) at 10uM” value is recorded as -16.8%.

As to `CCCn1c(=O)c(-c2nc3ccccc3[nH]2)c(O)c2ccccc21`, the “hERG current change (%, negative = inhibition) at 10uM” value was 2.18%.

For `Cc1cc(C(=O)OCC(=O)Nc2ccccc2)c(C)o1`, the “hERG current change (%, negative = inhibition) at 10uM” value is on record as 0.903%.

`CCOC(=O)/C(C#N)=C/C1=C(N2CCOCC2)C(C)(C)OCC1`: the “hERG current change (%, negative = inhibition) at 10uM” value is recorded as 7.58%.

In the case of `CCC(=O)N1CCc2cc(Br)cc(S(=O)(=O)N(C)c3ccc(OC)cc3)c21`, the “hERG current change (%, negative = inhibition) at 10uM” value was -23.5%.

Consider `O=C(OCc1c(-c2ccccc2)ncc2ccccc12)N1CCOCC1`, for which the “hERG current change (%, negative = inhibition) at 10uM” value is recorded as -7.16%.

As for `Cc1ccc([N+](=O)[O-])cc1S(=O)(=O)NCCc1c(C)[nH]c2ccccc12`, the “hERG current change (%, negative = inhibition) at 10uM” value is listed as -10.4%.

With `CCCOc1ccc(C(=O)NNC(=S)NC(=O)c2cc(-c3ccccc3)nc3ccccc23)cc1`, the “hERG current change (%, negative = inhibition) at 10uM” value was 15.2%.

On to `O=C(N/N=C/c1ccccc1O)C1CC(=O)N(c2ccc(Cl)cc2)C1` (stereo not shown), for which the “hERG current change (%, negative = inhibition) at 10uM” value was 8.21%.

Turning to `CC(=O)c1cccc(NC(=O)N2CCC(c3ccc(C)cc3)C2)c1` (stereo not shown), the “hERG current change (%, negative = inhibition) at 10uM” value is recorded as -13.8%.

`COc1ccc2[nH]c(C(=O)N3CCC(n4nccc4NC(=O)C4CC4)CC3)c(C)c2c1`: the “hERG current change (%, negative = inhibition) at 10uM” value is reported as -30.4%.

On to `COC(=O)C(O)(CC(=O)Nc1cc(Cl)ccc1Cl)C(F)(F)F` (stereo not shown), for which the “hERG current change (%, negative = inhibition) at 10uM” value was -0.106%.

As for `COc1ccc(S(=O)(=O)N2CCOCC2)cc1NC(=O)c1cc(C)oc1C`, the “hERG current change (%, negative = inhibition) at 10uM” value is on record as -17.4%.

For `O=C(c1cc2ccccc2o1)N(C1CC1)C1(C(=O)Nc2ccccc2)CCCC1`, the “hERG current change (%, negative = inhibition) at 10uM” value was determined as 2.52%.

As for `Cc1ccc(N=C2C(=O)Nc3ccccc32)cc1`, the “hERG current change (%, negative = inhibition) at 10uM” value was -1.19%.

Consider `Cc1ccc(Cl)c2c1=NC(=O)C=2c1[nH]c(=S)[nH]c1O`, for which the “hERG current change (%, negative = inhibition) at 10uM” value is recorded as 9.74%.

On to `O=C(NC(=S)NCc1cccnc1)c1ccccc1F`, for which the “hERG current change (%, negative = inhibition) at 10uM” value was 13.2%.

As to `Cc1ccc(S(=O)(=O)Oc2ccc(/C=C(/NC(=O)c3ccccc3)C(=O)NCC(=O)O)cc2)cc1`, the “hERG current change (%, negative = inhibition) at 10uM” value is on record as 16.7%.

As to `Cc1ccc(-c2noc(CCCC(=O)N3CCOCC3)n2)cc1`, the “hERG current change (%, negative = inhibition) at 10uM” value was -8.5%.

Take `Cc1cccc(C(=O)NCC(=O)OCC(=O)c2cc(C)n(CC3CCCO3)c2C)c1` (stereo not shown): the “hERG current change (%, negative = inhibition) at 10uM” value is recorded as -12.1%.

Take `Cc1ccc(C)c(N=Cc2ccc(-c3ccc([N+](=O)[O-])cc3)o2)c1`: the “hERG current change (%, negative = inhibition) at 10uM” value turned out to be 14%.

Take `O=C(O)c1ccc(/C=N/Nc2cccc(C(F)(F)F)c2)cc1`: the “hERG current change (%, negative = inhibition) at 10uM” value was 52.8%.

Turning to `CSc1ccc(CCNC(=O)CCc2nnc3ccc(N4CCOCC4)nn23)cc1`, the “hERG current change (%, negative = inhibition) at 10uM” value is -8.52%.

Turning to `CN(C)S(=O)(=O)c1cccc(NC(=O)COC(=O)c2ccc([N+](=O)[O-])o2)c1`, the “hERG current change (%, negative = inhibition) at 10uM” value is given as -19%.

On to `COc1ccc(-c2csc(-c3cccs3)n2)cc1OC`, for which the “hERG current change (%, negative = inhibition) at 10uM” value was 4.69%.

As to `COc1cccc(NC(=O)c2cc(=O)c3ccccc3o2)c1`, the “hERG current change (%, negative = inhibition) at 10uM” value is listed as 8.64%.

Regarding `COc1ccc2c(c1)CCc1c(C(=O)Nc3c(C)nn(Cc4ccccc4)c3C)noc1-2`, the “hERG current change (%, negative = inhibition) at 10uM” value was determined as 12.6%.

Take `CCCCN(C/C=C/c1ccccc1OC)Cc1ccccc1`: the “hERG current change (%, negative = inhibition) at 10uM” value was 3.47%.

`COc1ccc(C2C3=C(CC(C)(C)CC3=O)N(C)C3=C2C(=O)CC(C)(C)C3)cc1`: the “hERG current change (%, negative = inhibition) at 10uM” value amounted to 6.47%.

In the case of `Cc1ccc(-c2csc3ncnc(-n4nc(C)cc4N)c23)cc1`, the “hERG current change (%, negative = inhibition) at 10uM” value was -3.89%.

In the case of `C=CCN(CC=C)C(=S)Nc1ccccc1`, the “hERG current change (%, negative = inhibition) at 10uM” value stood at 17%.

In the case of `COc1ccc(Br)cc1CNC(=O)CCc1nc(-c2ccc(C)cc2)no1`, the “hERG current change (%, negative = inhibition) at 10uM” value turned out to be 18.7%.

For the compound `CC(NC(=O)C1CCN(S(=O)(=O)c2cccc3nonc23)CC1)c1ccccc1` (stereo not shown), the “hERG current change (%, negative = inhibition) at 10uM” value is recorded as 10.1%.

Take `CN(CC(=O)Nc1ccc(N2CCOCC2)cc1)CC(=O)Nc1ccc(C(F)(F)F)cc1`: the “hERG current change (%, negative = inhibition) at 10uM” value is on record as -20.4%.

For the compound `Cc1c(C(=O)NCCCN2CCOCC2)sc2nc(-c3ccc(F)cc3)cn12`, the “hERG current change (%, negative = inhibition) at 10uM” value is -60.9%.

`CCC(C(=O)NCCc1ccccc1)c1ccccc1` (stereo not shown): the “hERG current change (%, negative = inhibition) at 10uM” value is on record as 8.57%.

In the case of `Cc1cccc(N2C(=O)N3[C@@H]4c5ccccc5OC[C@@H]4[C@@H](c4ccccc4)[C@]3(C)C2=O)c1`, the “hERG current change (%, negative = inhibition) at 10uM” value amounted to 2.47%.

Turning to `O=C(/C=C\c1cccs1)N1CCN(Cc2ccc3c(c2)OCO3)CC1`, the “hERG current change (%, negative = inhibition) at 10uM” value is reported as -57.8%.

With `COc1ccc(OC)c(S(=O)(=O)NC(C)c2ccc(-n3ccnc3)cc2)c1` (stereo not shown), the “hERG current change (%, negative = inhibition) at 10uM” value was -25.1%.

With `Cc1ccc(-c2n[nH]c(=S)n2-c2ccccc2)cc1`, the “hERG current change (%, negative = inhibition) at 10uM” value is reported as 11.8%.

Turning to `O=[N+]([O-])c1cc(S(=O)(=O)N2CCCCC2)ccc1NCc1cccc(Cl)c1`, the “hERG current change (%, negative = inhibition) at 10uM” value was found to be 0.487%.

As for `Cc1nc2cc(NC(=O)NCCCO)ccc2o1`, the “hERG current change (%, negative = inhibition) at 10uM” value turned out to be 15.1%.

Take `CCCOc1ccc(C(CC(=O)O)NC(=O)CC(c2ccccc2)c2ccccc2)cc1` (stereo not shown): the “hERG current change (%, negative = inhibition) at 10uM” value was 4.16%.
